In PubChem BioAssay AID2676 (National Center for Advancing Translational Sciences (NCATS), 2010):
Hit rate of the full screen: of about 370,000 compounds, about 1,100 (0.3%) were called active. Inconclusive results, whose numbers are uncertain, are shown with a selection of clear calls. The call rests on the fitted dose curve; in most records, active means well fitted activation curve with a large enough effect; inconclusive means small, poorly fitted or top-dose-only effect; inactive means flat fitted curve, though single readings scatter. Potencies of inconclusive entries are doubtful fits and often do not repeat.

Biological target: Relaxin receptor 1 (Homo sapiens) (UniProt Q9HBX9)
Test: qHTS Assay for Agonists of the Relaxin Receptor RXFP1; further: nearly all actives have a fitted effect of over 60% in size
Conditions: HEK293T-RXFP1 cAMP TR-FRET, 30 min; series mostly up to 57.5 µM
How it was run: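 HEK293 cells stably expressing RXFP1, treated 30 min at 37C with compounds plus PDE4 inhibitor Ro 20174; cAMP measured by HTRF TR-FRET. Normalized to buffer and 29 nM porcine relaxin; EC50 by Hill fit.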
Potency means the concentration at half of the fitted maximal effect; tags describe the fitted curve by direction and shape.

UniProt Q9HBX9, sequence (Q9HBX9 whole entry, looked up): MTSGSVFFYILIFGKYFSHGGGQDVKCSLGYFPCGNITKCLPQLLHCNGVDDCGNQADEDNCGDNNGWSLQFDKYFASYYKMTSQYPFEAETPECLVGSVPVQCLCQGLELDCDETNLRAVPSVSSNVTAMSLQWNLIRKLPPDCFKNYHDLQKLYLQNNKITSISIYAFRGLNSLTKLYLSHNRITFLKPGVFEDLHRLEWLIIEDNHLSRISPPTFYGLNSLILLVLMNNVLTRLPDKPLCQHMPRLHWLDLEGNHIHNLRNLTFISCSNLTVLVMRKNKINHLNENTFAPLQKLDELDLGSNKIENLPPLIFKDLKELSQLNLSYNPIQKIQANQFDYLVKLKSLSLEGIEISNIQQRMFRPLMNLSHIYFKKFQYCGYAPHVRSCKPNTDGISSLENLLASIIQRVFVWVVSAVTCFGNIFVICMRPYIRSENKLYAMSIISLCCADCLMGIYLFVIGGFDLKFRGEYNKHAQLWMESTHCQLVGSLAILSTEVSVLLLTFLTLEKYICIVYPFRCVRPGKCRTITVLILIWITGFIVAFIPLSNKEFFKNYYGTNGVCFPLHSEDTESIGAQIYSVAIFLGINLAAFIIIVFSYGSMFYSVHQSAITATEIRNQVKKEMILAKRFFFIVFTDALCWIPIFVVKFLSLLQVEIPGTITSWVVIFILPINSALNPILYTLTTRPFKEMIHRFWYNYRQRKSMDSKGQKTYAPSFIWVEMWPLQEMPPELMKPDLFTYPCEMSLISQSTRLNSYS

SMILES	Potency
COc1cc(C(=O)Nc2nc(-c3ccc(Cl)cc3)c(C)s2)ccc1OCC(=O)Nc1ccc(F)cc1	active: 20 µM
Cc1ccc(C2C(C(=O)c3cccs3)=C(O)C(=O)N2c2nnc(C)s2)cc1 (stereo not drawn)	active: 20 µM
COc1ccc(CCn2c(S)nc3ccccc3c2=O)cc1	inconclusive: 35.5 µM [activator, single point]
N#Cc1c(C(F)(F)F)cc(-c2cccs2)nc1SCc1ccc(F)cc1	inconclusive: 25.1 µM [activator, single point]
Cc1c(C)c2ccc(OCC(=O)Nc3ccccn3)c(C)c2oc1=O	inconclusive: 35.5 µM [activator, single point]
Cc1nc(SCC(=O)Nc2cc(C(N)=O)cc(C(N)=O)c2)c2c(C)c(C)sc2n1	inconclusive: 39.8 µM [activator, single point]
COc1ccc(C2(C)NC(=O)N(CC(=O)Nc3ccc(-c4nc5ccc(C)cc5s4)cc3)C2=O)cc1 (stereo not drawn)	inactive
COc1cc2c(cc1OC)C1=NC(=O)CN1C(SCc1ccccc1C)=N2	inactive
O=[N+]([O-])c1cc(C(F)(F)F)ccc1NCCc1c[nH]c2ccccc12	inactive
CSc1ncc(C(=O)Nc2ccccc2C(F)(F)F)c(-c2ccccc2)n1	inconclusive: 39.8 µM [activator, single point]
COc1ccc(OC)c2c1sc(=NC(=O)C1CCCCC1)n2C	inconclusive: 39.8 µM [activator, single point]
Cc1ccc(NC(=O)C2CCCN(S(=O)(=O)c3cccc4nsnc34)C2)cc1C (stereo not drawn)	inconclusive: 39.8 µM [activator, single point]
Cc1cc(NC(=O)CCn2c(=O)c3cccn3c3cccnc32)ccc1Br	inconclusive: 39.8 µM [activator, single point]
Cc1cc(C)c(NC(=O)c2nc3ccccc3nc2N2CCCCC2)c(C)c1	inconclusive: 39.8 µM [activator, single point]
CCN1CCN(C(=O)CCc2nnc3ccc(N4CCC5(CC4)OCCO5)nn23)CC1	inconclusive: 14.1 µM [activator, partial curve]
CC(=O)OCCn1c2nc(=O)[nH]c(=O)c-2nc2cc(C)c(C)cc21	inconclusive: 22.4 µM [activator, partial curve]
COc1ccc(C2=C(C)C(N3CCC(C(=O)Nc4ccccc4F)CC3)=NS2(=O)=O)cc1	inactive
Cc1cc(SCCC(=O)O)nc2c(C)cccc12	inconclusive: 15.8 µM [activator, partial curve]
Oc1ccc2c(c1)c1c3n2CCNC3CCC1 (stereo not drawn)	inactive
COc1ccccc1CNC(=O)c1cc2c(=O)oc3ccc(C)cc3c2s1	inconclusive: 31.6 µM [activator, single point]
Cc1ccc2oc(-c3ccc(Cl)c(NC(=O)Cc4ccccc4)c3)nc2c1	inconclusive: 39.8 µM [activator, single point]
CC(=O)Nc1ccc(NC(=O)CCc2nc3sc4c(c3c(=O)[nH]2)CCCC4)cc1	inconclusive: 39.8 µM [activator, single point]
COC(=O)c1cc(Br)c(=O)n(-c2nccs2)c1	active: 15.8 µM

SMILES	Potency
CC(C)[C@H](NC(=O)c1ccccc1Cl)C(=O)OCc1cc(=O)n2cc(Br)ccc2n1	inconclusive: 28.2 µM [activator, partial curve]
O=c1cc(-c2ccc(F)cc2)nc(SCc2nc(-c3cccc(Cl)c3)no2)[nH]1	inconclusive: 39.8 µM [activator, single point]
COc1ccc(S(=O)(=O)N2CCOCC2)cc1NC(=O)CSc1ncnc2ccccc12	active: 15.8 µM
Cn1c(N)c(C(=O)CSc2nn(-c3ccc(F)cc3)c(=S)s2)c(=O)n(C)c1=O	inconclusive: 14.1 µM [activator, partial curve]
Cc1ccc2oc(-c3cc(NC(=O)c4ccc5c(c4)OCCO5)cc(C)c3O)nc2c1	inconclusive: 39.8 µM [activator, single point]
O=c1[nH]c2cc3c(cc2cc1C(c1nnnn1CC1CCCO1)N1CCCCCC1)OCCO3 (stereo not drawn)	inactive
COc1cc(OC)c(-c2nn3c(-c4cccnc4)nnc3s2)cc1OC	inconclusive: 35.5 µM [activator, single point]
CCC(C(=O)N1CCN(c2ccccc2F)CC1)n1nc(C)c2sc3ccccc3c2c1=O (stereo not drawn)	inconclusive: 6.31 µM [activator, single point]
CC(=O)C1=C(O)C(=O)N(c2ccc(Br)cc2)C1c1ccc(Cl)cc1 (stereo not drawn)	inconclusive: 25.1 µM [activator, partial curve]
CCOc1ccccc1NC(=O)C(C)Sc1nc(-c2ccccc2)c(C#N)c(=O)[nH]1 (stereo not drawn)	inconclusive: 31.6 µM [activator, partial curve]
O=C1c2cccnc2C(=O)N1Cc1ccc(S(=O)(=O)NCc2ccco2)cc1	inconclusive: 25.1 µM [activator, partial curve]
CCOc1ccc(Sc2cc(C(=O)NC(C)CC)c3ccccc3n2)cc1 (stereo not drawn)	inconclusive: 39.8 µM [activator, single point]
Cc1cc2cc3c(cc2nc1SCC(=O)Nc1ccccc1)CCC3	inconclusive: 31.6 µM [activator, single point]
COc1ccc(CC(=O)Nc2c(C(=O)Nc3ccc(F)cc3)oc3ccccc23)cc1OC	inconclusive: 31.6 µM [activator, partial curve]
COc1ccc(/C=N/NC(=O)c2nc(-c3ccccc3)cc(-c3ccccc3)n2)cc1OC	inactive
CCOc1ccccc1NC(=O)c1sc2nc(-c3ccc(OC)cc3)ccc2c1N	inconclusive: 22.4 µM [activator, partial curve]
CCOC(=O)c1c(C)oc2c1c(C(c1cccnc1)N1CCN(C)CC1)c(O)c1ccccc12 (stereo not drawn)	inactive
Cc1cccc(/C(N)=N/OC(=O)c2ccc3c(c2)OCO3)c1	inactive
Cc1ccc(S(=O)(=O)CCC(=O)OCC(=O)NCCc2ccccc2)cc1	inactive
O=C(CNC(=O)c1ccc(Cl)cc1)OCc1cc(=O)n2ccsc2n1	inconclusive: 22.4 µM [activator, partial curve]
CC(=O)c1sc(NC(=O)c2ccc3c(c2)OCO3)nc1C	inconclusive: 39.8 µM [activator, single point]
CCOC(=O)C1CCCN(C(=O)c2ccc(NC(=O)c3nsc4ccccc34)cc2)C1 (stereo not drawn)	inactive
Cc1ccc(-n2c(N)c(C#N)c(-c3ccccc3)c(C#N)c2=O)cc1	inconclusive: 39.8 µM [activator, single point]

SMILES	Potency
CCN(CC)S(=O)(=O)c1ccc(O)c(C(=O)OCC(=O)N2CCCC2)c1	inconclusive: 20 µM [activator, partial curve]
Cn1c(=O)c2sccc2n2c(CCCC(=O)NCCc3ccc(S(N)(=O)=O)cc3)nnc12	active: 28.2 µM
CN1CC=C2C(C#N)=C(N)C(C#N)(C#N)[C@H](c3cccc(Cl)c3)C2C1 (stereo partly drawn)	inactive
Cc1ccc(-n2ncc3c(=O)n(Cc4ccccc4C)cnc32)cc1C	inconclusive: 39.8 µM [activator, single point]
CSc1nnc(-c2ccc(S(=O)(=O)N3CCCCC3)cc2)o1	inconclusive: 39.8 µM [activator, single point]
CCN(CC)CCCNC(=O)CN1C(=O)COc2ccc(S(=O)(=O)N3CCC(C)CC3)cc21	inactive
O=C(CCNS(=O)(=O)c1ccc(Cl)cc1)N1CCN(c2ccccn2)CC1	inactive
N#Cc1c(N)nc(SCC(=O)NCCc2ccccc2)c(C#N)c1-c1cccs1	inconclusive: 39.8 µM [activator, single point]
O=C(CSC1=Nc2ccccc2C2=NC(CC(=O)N3CCN(c4ccccc4)CC3)C(=O)N12)NCC1CCCO1 (stereo not drawn)	inconclusive: 22.4 µM [activator, partial curve]
Nc1nonc1-n1nnc(C(=O)N/N=C/c2ccc(OCc3ccccc3F)cc2)c1CN1CCCCC1	inactive
c1ccc(N2CCN(c3ncnc4[nH]ncc34)CC2)cc1	inactive
CC(=O)c1ccc(NC(=O)C2CCC(CNS(=O)(=O)c3cccc4nsnc34)CC2)cc1 (stereo not drawn)	inactive
CS(=O)(=O)c1ccc(Cl)c(NC(=O)C2CC(=O)N(Cc3ccco3)C2)c1 (stereo not drawn)	inactive
CCc1nnc(SCc2nc(-c3ccccc3F)oc2C)c2cc3sccc3n12	inconclusive: 31.6 µM [activator, single point]
COc1cc2c(cc1NC(=O)CN1CCN(S(=O)(=O)c3ccc(C)cc3)CC1)oc1ccccc12	inactive
Cc1ccc(-c2nc3c(c(=O)c4ccccc4n3C)c(=O)n2-c2ccc(F)cc2)cc1	inconclusive: 35.5 µM [activator, single point]
Cn1c(=NC(=O)c2ccc(F)cc2)sc2cc(Br)ccc21	inconclusive: 14.1 µM [activator, partial curve]
COc1ccc(/C=C/C(=O)NCc2cn(C)nc2C)cc1COc1ccc(Cl)cc1Br	inactive
CC(=O)Nc1nccc(-c2cc(-c3ccccc3)no2)n1	inconclusive: 28.2 µM [activator, single point]
Cc1ccc(C(=O)NC2CCCCNC2=O)cc1 (stereo not drawn)	inactive
COC(=O)c1ccc(Nc2ncnc3c2cnn3-c2cccc(C)c2)cc1	inconclusive: 39.8 µM [activator, single point]
Cc1cc(C)nc(SCC(=O)Nc2ccc(S(=O)(=O)Nc3onc(C)c3C)cc2)n1	inconclusive: 28.2 µM [activator, partial curve]
